From the supplement of paper PMC3334620
The full ranking holds about 33,000 sequences; the median of “E-score (-0.5 to 0.5)” is about -0.036, and the highest 2% start at about 0.37. The list shows a part of the results.

Target: T1, Yer064c (UniProt P40041)
T1 sequence: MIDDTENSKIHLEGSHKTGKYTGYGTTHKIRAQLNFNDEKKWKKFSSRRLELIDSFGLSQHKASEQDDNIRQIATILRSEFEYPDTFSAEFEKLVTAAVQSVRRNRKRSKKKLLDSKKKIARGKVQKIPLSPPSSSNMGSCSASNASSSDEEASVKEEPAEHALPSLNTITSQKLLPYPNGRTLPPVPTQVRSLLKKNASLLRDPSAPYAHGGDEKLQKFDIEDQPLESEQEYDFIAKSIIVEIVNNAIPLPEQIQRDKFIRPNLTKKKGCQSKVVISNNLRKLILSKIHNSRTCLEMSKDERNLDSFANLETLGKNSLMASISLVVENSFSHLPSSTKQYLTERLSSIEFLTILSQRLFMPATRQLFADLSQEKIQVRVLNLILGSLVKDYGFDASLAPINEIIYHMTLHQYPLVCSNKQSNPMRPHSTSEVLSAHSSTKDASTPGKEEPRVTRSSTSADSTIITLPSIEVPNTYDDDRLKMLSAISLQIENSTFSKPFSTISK
Experiment: PBM E-score (8-mer binding enrichment) (E-score (-0.5 to 0.5)); higher = stronger / more preferred TF binding; most listed sequences are background and not binding sites
Settings: protein concentration: 200 nM; construct: GST-full length
Summary of the method: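 Universal all-10-mer Agilent arrays, double-stranded by primer extension on fresh or once-stripped slides, were probed with about 100-200 nM GST-tagged yeast transcription factors made by PURExpress. Fluorescent anti-GST detected bound protein, and masliner normalised the scans. E-scores from the Universal PBM Analysis Suite were given to each ungapped eight-base word pooled with its reverse complement.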

Sequence	PBM E-score
ATATGCTG	-0.149
CCCCCATA	-0.323
GCCCGTTA	-0.306
ACATCGCA	-0.203
CATCAGGC	-0.088
GCTTCGTA	-0.128
CAAGTATC	0.0186
ATAAAATC	0.191
ACGAGGTG	-0.116
AGTCACTA	0.469
TCACATAA	0.262
ACAATGTA	-0.11
ATCGTTAC	-0.0622
GCCCGAGC	-0.0349
GAGAGTAA	0.0863
ACCACGCT	-0.00689
ATAGGTTG	-0.00166
AACACACG	0.0301
AACGTTGA	0.0558
TATGTTCA	-0.0485
AGGCTGCC	-0.254
CATACACC	0.0215
TGCACCAA	-0.222
CAAGGGTA	-0.00639

Sequence	PBM E-score
ATTGCCTC	-0.139
CGATTGTA	0.023
CGGGCGTC	-0.148
CTCGATTA	0.186
AGCTAAAT	0.00761
ATATGGCC	-0.256
GAAAACTA	-0.133
CGGAGAGC	-0.107
ACGTGGCT	0.108
GGAAACAC	-0.0623
AGAGTTGC	-0.23
GCAAGGCA	-0.0178
TTGCTAAA	-0.207
GTCCGCCA	-0.00412
AATGCTTG	-0.18
GCAGATGC	-0.257
TCGTTGCA	0.0105
GGCCACAC	-0.15
CACAGGCG	0.00757
AAGCCAAT	0.0986
TAACAAAA	0.104
ACATTGTA	-0.0166
GCCGCAGA	-0.173
CATTTCAG	0.012

Sequence	PBM E-score
GCTCGCCA	-0.173
ACTGGTAA	0.0839
GCTCCCAA	-0.015
AGCAGTTG	-0.0829
AAACGTGA	0.177
CAACCTGC	-0.127
ACTACCGC	0.224
ACCGCGGC	-0.185
CCCTTCGG	-0.233
AAGGCTCG	-0.292
TGCCTCAA	-0.186
AGACTCCC	0.32
CACTCCAC	0.0622
AGACTCCT	0.337
CGCCGGCC	-0.279
ACGCTTCG	-0.111
ATCTAGGC	-0.26
TCACGAAA	0.087
CGCTTATA	-0.0592
ACTTTCTG	0.208
CGACGAAC	-0.14
CGTCTTTC	-0.108
AGATGCCC	-0.114
CTGTGTCA	-0.0661

Sequence	PBM E-score
AAGCAAAG	-0.218
GCAGTAGA	-0.132
CGCGATCA	0.0941
CCTATTAC	-0.2
AATCCAAC	-0.0272
ACGTTTCT	-0.246
GCGAATGA	0.159
CTCTCCAC	-0.0601
AGGTGGTA	-0.0819
ACGACCCT	-0.251
CACCTCTG	-0.0783
ATTTGGGC	-0.168
GCCGAGGC	-0.156
GGTTAAAC	0.211
CGTAGTTC	-0.226
CTTAAGGC	-0.16
ATCGCTTC	0.0447
GCAAACCA	-0.0683
CGAGCACG	-0.16
AGCGAGAT	-0.022
ACCCCGGT	-0.122
ATCCTAGG	-0.208
